# Experimental data as given in patent US20220273768A1 (The George Washington University, priority 2019, published 2022).
# Tested on: DIO mice
# Assay: Tail flick test (hot water tail immersion)
# Settings: 60 minutes after morphine, IN leptin 0.8 mg/kg
substance,measurement,value
leptin,mice in which the increase in tail flick latency was consistent,six out of seven
